# Assay results taken from PubChem BioAssay (NCI).
# The source holds several records for some structures; these can differ, active in one and inactive in another.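 Testing used 96-well plates and a 48-hour single-concentration exposure. Example: -40 means 40% of the starting cells died.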 A number of entries come with more than one value. The list is limited to them. How the source made its calls: active means growth percent below 10; inactive means the rest. There may be further records. This drug was run again and again over the years, at the concentration stated with the values; one value stands for one run. Marks such as (2×) stand for listed records that agree.
# Tests used:
# [1] = test system: NCI-H226 lung; test: NCI-60 one-dose screen, 48 h (100 = growth as untreated, 0 = no growth, -100 = all killed); conditions: 2.5 mM
# [2] = test system: NCI-H322M lung; test: as above; conditions: 2.5 mM
compound,measurement,setting,value
O=c1[nH]cc(F)c(=O)[nH]1,growth,[1]; runs of 1996,"inactive: 14.4, 56.4, 26.4, 35.1, 47.6 (2×), 51.7, 34.4, 33.7, 57.3, 40.5, 54.5, 62, 51.5, 55.7, 20.1, 42.9, 51, 58, 33.6, 54.8, 46.9, 36.5, 62.6, 31.8, 11.8, 18.8, 45.4 (2×), 34.6, 12.7, 49.2, 42.1 (2×), 30.8, 42.6, 57.1, 38.8, 52.7, 56.1, 60, 73.6, 39.6, 53, 75.6, 13.7, 32.5, 32.4, 11.4, 18.7, 24.8% and active: -8.66, -7.12, 7.1, 0.416, 5.78, -32.1, 9.63%"
same,growth,[1]; runs of 1997,"inactive: 15.3, 48, 61.7, 27.6 (2×), 62.1, 30.5, 57.7, 27.3, 38.1, 38, 44.2, 61.8, 21.5, 42.3, 40.3, 45.9 (2×), 44.6, 53.2, 48.2, 27.4, 50.1, 47.6, 60.2, 68.7, 46.9, 51, 42.1, 49.9, 55.2, 50.8% and active: -0.362, 9.05, 1.93, -1.02, -2.11%"
same,growth,[1]; runs of 1998,"inactive: 65.6, 94.4, 48.5, 21.7, 44.4, 75.6, 55.4, 44.8, 59.6, 26.3, 63.1, 52.5, 28.3% and active: -6.91, 6.6, -2.27, -23.8, -19.1, 4.7%"
same,growth,[1]; runs of 1999,"inactive: 22.9, 26.4, 11.3, 22, 35.6% and active: -68.6, -74.9, -85.8, -69.6, -71, -47.7, -34.9, -43.1, 0.0899%"
same,growth,[1]; runs of 2000,"active: -69.6, -16, -36.2, -82.8%"
same,growth,[2]; runs of 1991,"inactive: 17.6, 44.2, 22.3, 25.2, 20.8, 14.4, 10.8, 37.4, 28, 21.5, 27.4, 18.2, 28.4, 33.8, 29.8% and active: 6.97%, 0.769%, -6.81%"
same,growth,[2]; runs of 1992,"inactive: 17.4, 35.6 (2×), 14.2, 39.1, 30.3, 20.2 (2×), 16, 25.7 (2×), 16.5, 25.3 (2×), 18.2 (2×), 10.6, 35.7, 30.8, 43.4, 23.2, 10, 64.2, 32.5, 25.4, 21.5, 22.9, 42 (2×), 58.6, 43.3, 41, 32.1, 46.3, 17 (2×), 30.6 (2×), 26.5, 21.8, 17.9, 36, 14.4, 24.5 (3×), 24.8, 33.8 (2×), 29.7, 28.6, 31.7, 16.1, 26.3 (2×), 26.8, 26.6, 103, 20.4, 32, 12.3, 23.9 (2×), 35.9, 24, 27.7, 22.6, 33.9, 19.1, 21.2, 17.1, 25 (3×), 38.1, 20.6 (2×), 35.8, 31.9, 32.8 (2×), 15.3, 14.5, 32.6, 15.2, 28.3, 33.2, 30, 18.6, 48.1, 18.4, 11.9, 13.5, 11.1, 29.8, 30.7, 15.8, 29.1, 20.9, 23.4, 32.9, 26.1, 19.8, 21.3, 36.1, 21.7, 41.3, 35.1, 30.1% and active: 6.03, 6.25, 7.85, -4.9, -14.7, 7.12, 5.81, 6.4%"
same,growth,[2]; runs of 1993,"inactive: 23.8, 23.2, 26 (2×), 15.2 (2×), 23.9, 14 (3×), 11.6, 24.4, 33.6, 41.3, 10.1, 16.4, 34.8, 28.4, 22.9, 23.7, 28.1, 21.4, 30.6, 26.1, 15.7, 17.4, 37.8, 77.8, 17, 32.9, 25.5, 13, 35.7, 28.3, 20.1% and active: 2.95, 7.63, -1.75, 5.33, -8.49%"
same,growth,[2]; runs of 1994,"inactive: 24.6, 11.5, 29.8, 22.7, 34.2, 31.8, 25.8, 40.8 (2×), 33.3, 30.6, 26.9, 38.4, 31.5, 23.7, 37.4, 21.8, 21.1, 32, 37.8, 39.4, 22, 25.1, 33.1, 13.3, 29.3% and active: -2.67%, -12.8%"
same,growth,[2]; runs of 1995,"inactive: 35.3, 17.6, 19.2, 23.1 (2×), 36.4, 35.7, 10.1, 27.9 (2×), 27.3, 22.8, 13.1, 33, 22.7, 27.4, 19.8, 11.4, 24.6, 26.8, 34.8, 18.7, 31.1, 37.8, 28.4, 28.1, 35.4, 24.9, 25.6, 29.8, 21.5, 31.8, 26.9, 21, 33.6% and active: 9.69, -9.25, -3.29, -7.59%"
same,growth,[2]; runs of 1996,"inactive: 28, 25 (2×), 17.9, 24.4 (2×), 28.1, 21.1 (2×), 16.2, 29.6, 19.3, 24.9 (2×), 34.1 (3×), 38.8, 18.5, 31.2, 31, 20.8, 33.8, 43.6, 36, 36.6, 34.7, 44.2, 27, 29.4, 30.6, 17.7, 34.4, 29.9, 34, 33.4, 27.9, 30.2, 29.5, 22.9, 22.6, 25.5, 32.7, 10.7, 23.2, 35.6, 42.1, 13.5, 28.2, 28.6, 33.1, 50.3, 34.3, 29, 40.8% and active: 2.39%, 7.12%"
same,growth,[2]; runs of 1997,"inactive: 34.6 (2×), 36.7, 24.7, 30.4, 28.8 (2×), 31.3, 25, 12.8, 31.9 (2×), 31.5, 18.7, 40.2, 15.6, 30.2, 25.4, 30.1, 37.7, 26.4, 41.3, 37.8, 20, 18.8, 12.3, 17.4, 22.1, 12, 21, 15.7, 41.5, 25.6, 17.2, 39.1, 26.2, 21.2, 17.5, 22.4, 30.9% and active: -1.84%, 8.06%, -20%"
same,growth,[2]; runs of 1998,"active: 0.621, 0.452, 8.86, 1.2, -4.17, -6.04, -22.9, -18.7, -29.7, -18.2, -34.3% and inactive: 16.4, 41.9, 32.3, 27.4, 31.4, 20.9, 28.2, 13.2, 20.7, 40.4, 33, 22.2, 17.1, 12.6, 12.8%"
same,growth,[2]; runs of 1999,"inactive: 47.1, 19.5, 21.1, 18.6, 21.2, 29.7, 11.3% and active: -63.4, 0.676, -28.4, -30.1, 8.24, -19.6, -49.1, -100%"
same,growth,[2]; runs of 2000,"active: -20.7, -54.9, -11.2, -27.4%"
